Measurements: the supplement of paper PMC3334620
Over roughly 33,000 sequences, “E-score (-0.5 to 0.5)” has its median near -0.054; the highest 2% begin near 0.39. The list shows a part of the results.

molecular target: Ylr278c (UniProt Q05854); test: PBM E-score (8-mer binding enrichment) (E-score (-0.5 to 0.5)); higher = stronger / more preferred TF binding; most listed sequences are background and not binding sites; conditions: protein concentration: 200 nM; construct: GST-DNA-binding domain
In short: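 PURExpress in vitro transcription/translation supplied GST-tagged yeast transcription factors, either full-length or DNA-binding domain. Applied at about 100-200 nM to universal all-10-mer Agilent arrays double-stranded by primer extension, the bound protein was detected with fluorescent anti-GST. E-scores, modified Wilcoxon-Mann-Whitney statistics, were given by the Universal PBM Analysis Suite to ungapped eight-base words pooled with their reverse complements after masliner normalisation.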

Sequence	PBM E-score
CTTGTGAA	-0.156
AACGTCAA	-0.163
AATATGGT	0.105
ATAGGACC	0.048
AAACGCCA	0.0115
CGTAGTCC	0.1
AAGGTGCA	-0.166
GATGGGCA	-0.183
CAAGTCAA	-0.222
ACAGTCCA	-0.198
TAATGCTA	-0.0119
GGTTCCTA	-0.108
ACAAGAGG	-0.0463
CAACCATG	-0.0437
AGCTTGAG	0.105
CCGCGGCA	0.381
GTGGCTCA	-0.167
ATCTCCAG	-0.0917
CGCTTCCC	0.153
AAAATCTG	-0.0672
TAGTAGCA	-0.0836
AAAGCACC	-0.114
ATCTGTGA	0.00308
CGTATGAG	-0.039
AGAGTTCG	-0.0185

Sequence	PBM E-score
GTGACGTA	-0.142
AGTTCCAG	-0.0676
CGTAAGGA	-0.265
ATCGATGA	-0.164
CCTCTCCC	-0.153
ACCTACGA	-0.23
CCAGTCGC	0.0422
AGTGCCGC	0.0939
CAGGCCTA	-0.144
CCTCAGAA	-0.263
CACTGATA	-0.288
GATGGGAA	-0.166
CGCCCCGA	0.35
AGGTTAAG	-0.259
CCCCAACA	-0.0695
CCTGAAGG	-0.206
GCACAAAC	-0.00707
CGGTAACG	0.126
GGCGAGCC	0.0265
CGGCCTAA	0.174
CTAGCGAA	-0.291
AGATGAAA	-0.0311
CATCGATC	-0.111
CAGACGCA	-0.0578
ACAAGTAC	-0.0289

Sequence	PBM E-score
CACAGCAC	-0.118
GGCTACAC	-0.161
AATTTTCG	0.126
AGGACAAG	-0.207
GGATCAAA	0.0369
AAAGACGA	-0.147
GGATCGCC	0.107
GACAGGTA	-0.0451
AGGGAGAG	-0.256
ATGTTTCA	-0.153
GAAGGGAC	-0.175
AAGACCAT	-0.112
CCGGGACC	0.408
CGTATATA	-0.111
CTCACAAG	-0.207
GAGATCAA	0.0546
AAGCTGAT	-0.0508
CCTATAGA	-0.189
CCCCGAAG	0.3
AGTTCTCC	0.251
CTAAATCC	0.309
GCTTGTAA	-0.171
ATCCATGG	0.0118
CGGGATTC	0.392
AACGCTAA	-0.393

Sequence	PBM E-score
CTTTGGTC	-0.0362
AGGTAGGC	-0.111
AGCACTAA	-0.0957
CACGTCGA	-0.141
CATTGAGG	-0.117
CCTTGGTA	0.0261
GATATACA	-0.0016
AGAGTCCG	0.347
ACCTTGTC	-0.192
AGAGTTCC	0.2
ACTCCGTG	0.449
AAACTGGG	-0.0511
CTATGCCC	-0.1
ATTACGCA	0.0188
CGAGGTCC	0.333
AAACCTCT	-0.0199
ATTCCATG	-0.00616
GACCATCC	-0.0475
CCGATAAA	0.385
CACAGACA	-0.139
CTCCTAAG	-0.158
GGGTGATA	-0.0273
AGGGGCCG	0.0855
ATGCATTG	-0.231
CGCGATAA	0.126

Sequence	PBM E-score
CAGATGGA	0.113
ACTACACA	0.0266
AACAGGTC	-0.139
ATGAAAAC	0.064
TGACAGAA	-0.22
ATGTCTGC	-0.0367
AACGACCC	0.0589
GCACTATA	-0.161
TCGCGTCA	-0.0951
GTCCATTA	-0.178
CCCGGAGC	0.452
CATCTCCG	0.463
CCCACTCC	0.199
AAGCCACA	-0.162
ATTCTTCC	0.133
GCACACCA	-0.112
CCGCCATA	0.256
GTTCGAAA	0.0551
AAGTTTTA	-0.0254
ATAGGTTC	-0.0262
AACCCCCT	-0.374
CGTTATCA	-0.133
CTTATGAA	-0.135
TACAGTAA	-0.189
ATTACATG	0.0663

Sequence	PBM E-score
ATGACGGG	0.122
CATGGAAG	-0.0195
AAGCAATC	-0.0664
AAAGTAGC	-0.0669
ACTCTGTA	-0.175
GAGGTTGC	0.0511
AGAACTCC	0.276
GTGGGGTA	0.202
ACTCGTTG	-0.245
TGTTCGAA	-0.136
AACATGAA	-0.202
GAAATCGA	0.192
CCCTTCGA	0.0176
AGAATCCT	-0.196
TAGTGTCA	-0.113
AGCTTCAA	-0.0837
TCCCGGAA	0.44
AAGACAGC	-0.0488
ATTTTAAC	-0.0451
ATTCACCC	0.076
CTCGTTTC	-0.0952
CGAGGCAC	-0.0591
CCGTAATA	0.15
CGAGAGAA	-0.0446
GGAATTAC	0.302

Sequence	PBM E-score
CGCTCTCA	-0.144
AATAGGAT	0.106
TACGTTGA	-0.272
ATGAAATC	0.0267
GGAGTACC	0.167
ACACCCGA	0.102
GCTGAACC	0.00745
AAGATTCC	0.074
CCCCCTAC	-0.226
CCAATGAA	-0.0266
CGTGTATC	0.022
ACCACTGA	-0.281
ATATAGTC	0.0315
GGAACCGA	0.23
AGTATATG	-0.0862
CATTGACA	-0.185
CCCTCGTA	-0.0977
CGCCCGGC	0.292
AGGGCGTG	0.0333
CCAACGCG	0.126
AACGCCAT	-0.0995
ATGACCAT	-0.071
